The record followed here is the supplement of paper PMC7125110.

± gives the standard error. Variants at the floor of the assay are shown more often than the library holds them.

The chains are these.
B1: glmS ribozyme (parent)
chain: AUAAAAGCGCCAGAACUACAGAAAUGUAGUUGACGAGGAGGAGGUUUAUCGAAUUUUCGGCGGAUGCCUCCAAA

In the series the parent is B1. Kind of series: self-cleavage kobs at 10000 uM GlcN6P; higher = faster cleavage; RNA array. As to conditions: with glucosamine-6-phosphate. An outline of the steps: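 Barcoded ribozyme variants, transcribed in situ by E. coli RNA polymerase on sequenced MiSeq chips, were followed via a hybridised Cy3 probe at 37 °C. Glucosamine-6-phosphate ranged from 40 μM to 10 mM in HEPES/KCl/Mg(OAc)2 buffer. kobs came from decay fits to per-tile medians, and kcat and KM from weighted Michaelis–Menten fits.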
AUAAAAGCGCCAGAACUACAGAAAUGUAGUUGACGCGGAGGUGGUUUAUCGAAUUAUUGGCGGGUGCCUCCAAA [A36C A42U U56A C58U A64G]: the “self-cleavage kobs at 10000 uM GlcN6P” value is under 1e-05 s⁻¹.

On to AUAAAAGCGCCAGAACUACAGAAAUGUAGCUUACGCGGAGGAGGUUUAUCGAAAUUUCGGCGGAUGCCUCCAAA [U30C G32U A36C U54A], for which the “self-cleavage kobs at 10000 uM GlcN6P” value was under 1e-05 s⁻¹.

In the case of AUAAAAGCGCCAGAACUACAGAAAUGUAGUUGACGCGGAGGAGAUUUAUCGAAUUUUCGGCGGAUUCCUCCAAA [A36C G44A G66U], the “self-cleavage kobs at 10000 uM GlcN6P” value is under 1e-05 s⁻¹.

On to AUAAAAGCGCCAGAACUACAGAAAUGUAGUUGACGAGGAAGAGGUUUACCGAAUUUUCGGCGGAUGGUUCCAAA [G40A U49C C67G C68U], for which the “self-cleavage kobs at 10000 uM GlcN6P” value was under 1e-05 s⁻¹.

AUAAAAGCGCCAGAACUACAGAAAUGUAGUUGACGACGAGGAGGGUUAUCGAAUUUUCGGCGGCUGCCUCCAAA [G37C U45G A64C]: the “self-cleavage kobs at 10000 uM GlcN6P” value is under 1e-05 s⁻¹.

With AUAAAAGCGCCAGAACUACAGAAAUGUAGUUGAAGAGGAGGAGAUUGAUCGAAUUUUCGACGGAUGCCUCCAAA [C34A G44A U47G G60A], the “self-cleavage kobs at 10000 uM GlcN6P” value is under 1e-05 s⁻¹.

As for AUAAAAGCGCCAGAACUACAGAAAUGUAGUAGAGGAGGAGGACGUUUAUCGAAUUUUCGGCGGAUGCCUCCAAA [U31A C34G G43C], the “self-cleavage kobs at 10000 uM GlcN6P” value was under 1e-05 s⁻¹.

As to AUAAAAGCGCCAGAACUACAGAAAUGUAGGGGACGAGGAGGAGGUCUAUCGAAUUUUCGGCGGAGGCCUCCAAA [U30G U31G U46C U65G], the “self-cleavage kobs at 10000 uM GlcN6P” value came out at 5.94e-05 ± 2.6e-05 s⁻¹.

With AUAAAAGCGCCAGAACUACAGAAAUGUAGUUGACGAGUAUCAGGUUUAUCGAAUAUUCGGCGGAUGCCUCCAAA [G38U G40U G41C U55A], the “self-cleavage kobs at 10000 uM GlcN6P” value was under 1e-05 s⁻¹.

Consider AUAAAAGCGCCAGAACUACAGAAAUGUAGUUGACGAGGACGAUGUUUAUCUAAUUUUCGGCGGAUGCCUCCAAA [G40C G43U G51U], for which the “self-cleavage kobs at 10000 uM GlcN6P” value was under 1e-05 s⁻¹.

As to AUAAAAGCGCCAGAACUACAGAAAUGUAGUUGCCGAGGAGGAGCUUUAUCCAAUUUUCGGCGCAUGCCUCCAAA [A33C G44C G51C G63C], the “self-cleavage kobs at 10000 uM GlcN6P” value is under 1e-05 s⁻¹.

With AUAAAAGCGCCAGAACUACAGAAAUGUAGUUGACGGUGAGGAGGUUUAUCGAAUUUUCGGCGUAUGCCUCCAAA [A36G G37U G63U], the “self-cleavage kobs at 10000 uM GlcN6P” value was under 1e-05 s⁻¹.

For AUAAAAGCGCCAGAACUACAGAAAUGUAGUUGACUACGAGGAGGUUUAUCGAAUUUUCGGCGUUUGCCUCCAAA [G35U G37C G63U A64U], the “self-cleavage kobs at 10000 uM GlcN6P” value was under 1e-05 s⁻¹.

For AUAAAAGCGCCAGAACUACAGAAAUGUAGUUGACGAGGGGGAGGUUUAUCUAAUUUUCGGCGGAUGCCUCUAAA [A39G G51U C71U], the “self-cleavage kobs at 10000 uM GlcN6P” value was under 1e-05 s⁻¹.

AUAAAAGCGCCAGAACUACAGAAAUGUAGUUGACGACGAGGACGUUUAUCGAAUUUUCGGCGGAAGCCUCCAAA [G37C G43C U65A]: the “self-cleavage kobs at 10000 uM GlcN6P” value was under 1e-05 s⁻¹.

For the variant AUAAAAGCGCCAGAACUACAGAAAUGUAGUUGACGAGGAGAAGGUUUAUCGAAUUUUCGGCGGAUACUUCCAAA [G41A G66A C68U], the “self-cleavage kobs at 10000 uM GlcN6P” value amounted to 3.05e-05 ± 1.3e-05 s⁻¹.

In the case of AUAAAAGCGCCAGAACUACAGAAAUGUAGGUGACGAAGAGUAGGUUUAUAGAAUUUACGGCGGAUGCCUCCAAA [U30G G37A G41U C50A U57A], the “self-cleavage kobs at 10000 uM GlcN6P” value was under 1e-05 s⁻¹.

Consider AUAAAAGCGCCAGAACUACAGAAAUGUAGUUGACGAGAAGGAGGUUUAUCGAAUUUUCCGUGGAUGCCUCCAAA [G38A G59C C61U], for which the “self-cleavage kobs at 10000 uM GlcN6P” value was under 1e-05 s⁻¹.

In the case of AUAAAAGCGCCAGAACUACAGAAAUGUAGUUGACGAGGAGCAGGUUUAUCGAAUUUUCGGCGGAUCCAUCCAAA [G41C G66C C68A], the “self-cleavage kobs at 10000 uM GlcN6P” value was under 1e-05 s⁻¹.

With AUAAAAGCGCCAGAACUACAGAAAUGUAGUUUACGAGGAGGAGUUUUAUCGAAUUUUCGGGGGAUGCCUCCAAA [G32U G44U C61G], the “self-cleavage kobs at 10000 uM GlcN6P” value is under 1e-05 s⁻¹.

For AUAAAAGCGCCAGAACUACAGAAAUGUAGUUGACGAAGAGGAGGUUUAGCGAAUUUUCGGCGGAUGGCUCCAAA [G37A U49G C67G], the “self-cleavage kobs at 10000 uM GlcN6P” value was under 1e-05 s⁻¹.

Turning to AUAAAAGCGCCAGAACUACAGAAAUGUAGUUGACGAGCUGGAGGUUUAUCGUAUUUUCGGCGGAUGCCUCCAAA [G38C A39U A52U], the “self-cleavage kobs at 10000 uM GlcN6P” value was under 1e-05 s⁻¹.

Take AUAAAAGCGCCAGAACUACAGAAAUGUAGUUGGCGAGGAGUAGGUUUAUCGAAUUUUCGGCGGAUGCCUCUAAA [A33G G41U C71U]: the “self-cleavage kobs at 10000 uM GlcN6P” value was under 1e-05 s⁻¹.

On to AUAAAAGCGCCAGAACUACAGAAAUGUAGUUGACGAGGCGCAGGUUUAUCGAAUUGUUGGCCAAUGCCUCCAAA [A39C G41C U56G C58U G62C G63A], for which the “self-cleavage kobs at 10000 uM GlcN6P” value was under 1e-05 s⁻¹.

For AUAAAAGCGCCAGAACUACAGAAAUGUAGUUGACAUGGAGGAGGUUUUUCGAAUUUUCGGCGGAUGCCUCAAAA [G35A A36U A48U C71A], the “self-cleavage kobs at 10000 uM GlcN6P” value is under 1e-05 s⁻¹.

As to AUAAAAGCGCCAGAACUACAGAAAUGUAGUCGACGAGGAGGAGGUUUAUCGUAUUUUCGGCGUAUGCCGCCAAA [U31C A52U G63U U69G], the “self-cleavage kobs at 10000 uM GlcN6P” value was under 1e-05 s⁻¹.

With AUAAAAGCGCCAGAACUACAGAAAUGUAGUUGCCGAGGAGGAGGCUUAGCGAAUUUUCGGCGGAUACCUCCAAA [A33C U45C U49G G66A], the “self-cleavage kobs at 10000 uM GlcN6P” value was under 1e-05 s⁻¹.

With AUAAAAGCGCCAGAACUACAGAAAUGUAGUUGACGAGUAGGAGGUUUAUCGAAUUUUCGGUGGUUGCCUCCAAA [G38U C61U A64U], the “self-cleavage kobs at 10000 uM GlcN6P” value was under 1e-05 s⁻¹.

For the variant AUAAAAGCGCCAGAACUACAGAAAUGUAGUUGACGAUGAGGAGGUUUAUCGAAUUUUCGGCGGAUGACUCCAAA [G37U C67A], the “self-cleavage kobs at 10000 uM GlcN6P” value was under 1e-05 s⁻¹.

AUAAAAGCGCCAGAACUACAGAAAUGUAGUUGACGAGGAGGCGGCUUAUCGAAUUUUCGGCGGAUGCCUCCAAA [A42C U45C]: the “self-cleavage kobs at 10000 uM GlcN6P” value was under 1e-05 s⁻¹.

AUAAAAGCGCCAGAACUACAGAAAUGUAGUAGACGAGGAGGAGGUUUAUCGAAUUUGCGGCGGAUGCCUCCAAA [U31A U57G]: the “self-cleavage kobs at 10000 uM GlcN6P” value came to 3.33e-05 ± 1.1e-05 s⁻¹.

As for AUAAAAGCGCCAGAACUACAGAAAUGUAGUUGACGAUCACGCGGUUUAUCGAAUUUUCGGCGGAUCCCUCCAAA [G37U G38C G40C A42C G66C], the “self-cleavage kobs at 10000 uM GlcN6P” value was under 1e-05 s⁻¹.

On to AUAAAAGCGCCAGAACUACAGAAAUGUAGUUGCCGAGGAGGAGGUUUAUCGAAUUUUCGGCGGAUGCGUCAAAA [A33C C68G C71A], for which the “self-cleavage kobs at 10000 uM GlcN6P” value is under 1e-05 s⁻¹.

Regarding AUAAAAGCGCCAGAACUACAGAAAUGUAGUUGCCGAGGCGGAGGUUUAUCGAAUUUUCGGCGGCUGCCUCCAAA [A33C A39C A64C], the “self-cleavage kobs at 10000 uM GlcN6P” value was under 1e-05 s⁻¹.

Take AUAAAAGCGCCAGAACUACAGAAAUGUAGUUGACUAGGAGGAGGUUUAUCGAAUGUUCGGCGGAUGCCUCCAAA [G35U U55G]: the “self-cleavage kobs at 10000 uM GlcN6P” value is under 1e-05 s⁻¹.

As for AUAAAAGCGCCAGAACUACAGAAAUGUAGUUGACGAGGUGCAGGUUUAACGAAUUUUCGGUGGAUGCCUCCAAA [A39U G41C U49A C61U], the “self-cleavage kobs at 10000 uM GlcN6P” value was under 1e-05 s⁻¹.

As for AUAAAAGCGCCAGAACUACAGAAAUGUAGUUGACGAGAAGGAGGUUUAUCGAAUUUUAGGCGGAUGCCUCCAAA [G38A C58A], the “self-cleavage kobs at 10000 uM GlcN6P” value is under 1e-05 s⁻¹.
